# Reference: publication PMC12136788
# The other results are listed elsewhere or left out.
# T1: UNK ZnF1-3 (human, UniProt Q9C0B0 31-174)
# T1 sequence: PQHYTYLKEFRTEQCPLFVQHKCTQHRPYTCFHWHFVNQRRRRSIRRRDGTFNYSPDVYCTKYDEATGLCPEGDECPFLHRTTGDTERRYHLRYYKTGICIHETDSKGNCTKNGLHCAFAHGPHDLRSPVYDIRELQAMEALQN
# B1: 56322392_56325103_1058_CDS_ENSG00000134852_ENST00000309964|human|control|control (ssRNA)
# RNA: GGGAGUUCUACAGUCCGACGAUCUAGAAACAGAAACUUCCAUUCUAAACUAUGUCUAGAUGUAAACUCUUCAUUGGGUUCUUCAACAGUGCACAUUUCCUUGAUGAACUGAGGUGUAGCUAACCUGACAGUAGCUACAAAACACAACAGAGGAUUGAGCAUCA
# B2: 43436322_43464990_2321_CDS_ENSG00000052841_ENST00000039989|human|control|control (ssRNA)
# RNA: GGGAGUUCUACAGUCCGACGAUCUUCCAAAGGCCAUGCCUGUUGAAAUUCAUCCACCAAAGCCAGUAUUUCUUCUGACAUUUUGGUUUCAUCUGAAUUCUCCAUCUCAUCAGAACCAUUGCUCUCCUCAACCACCGUACCACUCAACAGAGGAUUGAGCAUCA
# B3: chr3:39121231:39121232:+_ENSG00000114742_ENST00000302313|hu_mus|motif|central (ssRNA)
# RNA: GGGAGUUCUACAGUCCGACGAUCAUUCGUAUCUUUGGUUAAUAUGUGUCGCUUGUCAUUUAGGAUGUGGCACUGAAUAAUACGGGCGCCCCCUUUAAUAACUUGGUCGGGCUGUGUGCAGAGGGGCGUUAUGGGGUUUGUACACAACAGAGGAUUGAGCAUCA
# B4: chr2:90693216:90693217:+_ENSMUSG00000027282_ENSMUST00000136872|mus_mus|motif|central (ssRNA)
# RNA: GGGAGUUCUACAGUCCGACGAUCCUCUUUGAUAACUCGGUCAAAGGAGGAUGAAUAUUCUUUUUGUACAGUUACAGAUCCGGACUCCUCAGGUUUCUCAGACUCCUGGUAAUACUGUAAGACUUUCCCAUGGACCACAGUUCCCAACAGAGGAUUGAGCAUCA
# B5: chr4:82150701:82150702:-_ENSMUSG00000008575_ENSMUST00000064770|mus_hu|motif|central (ssRNA)
# RNA: GGGAGUUCUACAGUCCGACGAUCUAAAACGCACUUUCCGGGAGAUGCCCAAGAAAAUCUUCGAGAAGCAAGAAUUUCAUCGGUUCAUUUUACAGUCAUCUGAGCCCCGCGAUGCGAUCAAUCAGGACGGGGCUCUGCGCUGGACAACAGAGGAUUGAGCAUCA
# B6: chrX:69798090:69798091:-_ENSMUSG00000031343_ENSMUST00000055966|mus_mus|mus_mus_mus_hu_False|58_108 (ssRNA)
# RNA: GGGAGUUCUACAGUCCGACGAUCAAGUCCCCAGGUUCUUGUCGUCUUGAUUCCCCUUGACCAGUGGUUCCAGGGAGAAUACUAAUCAGGAAAAGAAUCCCAAGGCUGGUCAUGUAACAGUGACUUGUUUGUGUGAUUAUCAUCCAACAGAGGAUUGAGCAUCA
# B7: chr19:58870598:58870599:-_ENSMUSG00000025092_ENSMUST00000066285|mus_mus|motif|central (ssRNA)
# RNA: GGGAGUUCUACAGUCCGACGAUCUCUUCGAUUAAUAAUGCAUUUUUGACUCCUGUUUAUAUUGGUGCAUGCAAUUCUUUGCGGCCCUGGCAAUUAACCAGACCUGGACUCUAAAAGCUAAACUUGGUCUAAGUAACAUUCUAACAACAGAGGAUUGAGCAUCA
# B8: chr12:41043843:41043844:-_ENSMUSG00000055917_ENSMUST00000069637|mus_mus|motif|central (ssRNA)
# RNA: GGGAGUUCUACAGUCCGACGAUCUUUGGAUUUGAACUUUACAUGGCAACUGUAGCACUUGCAUUGGUGAACUUGCCUUCGGAUGAAAUUGACCAGCUUCACUUGCUGAUAGAAAUUUAAUCCAAGCUCUGACUUUAUUCUGAGCAACAGAGGAUUGAGCAUCA
# B9: chrX:71549762:71549763:+_ENSMUSG00000019087_ENSMUST00000019231|mus_mus|FALSE|FALSE (ssRNA)
# RNA: GGGAGUUCUACAGUCCGACGAUCCCAGUGUACCACUCACUCUUAACACAUCACCCCUCCCCCCCAAAAAACAUAACAGCUAAGCUGGACAGACAGUCAAGUAGUCUUUCCACACCUCGCAAAUUCAAGGAACCUCAAGUUCAUCAACAGAGGAUUGAGCAUCA
# B10: chr17:60770872:60770873:+_ENSG00000011028_ENST00000303375|hu_hu|hu_hu_hu_mus_True|8_18 (ssRNA)
# RNA: GGGAGUUCUACAGUCCGACGAUCUCUUUAAAAAAAAAAAAAAAAAGACAAACAAUAAUAGCACAUUUCGAGAAUCAAGAACUACAAUAGAGGGUCCGCUUUGAGUUUUUGUUCACAACAUUGUCCCACGCUGUCGCGGGACUGCAACAGAGGAUUGAGCAUCA
# B11: chr11:35622686:35622687:-_ENSMUSG00000018848_ENSMUST00000018992|mus_hu|FALSE|FALSE (ssRNA)
# RNA: GGGAGUUCUACAGUCCGACGAUCGAAAGCAGUUGCCAGCUCAUAUAUAUAAUCACAGAGAGUGUGGAGAAAUAAGUCAUCUAAAAUCUUUUGCAGAAUCUCAGGGAACCGUAAAAUGCACCGGCCUAGUUUCCAUUCCUUCUCCAACAGAGGAUUGAGCAUCA
# B12: 67703826_67704027_1851_CDS_ENSG00000111530_ENST00000544619|human|control|control (ssRNA)
# RNA: GGGAGUUCUACAGUCCGACGAUCAAGACAACUGUCUAGAAGUGUGUACAUACACUCAAAUGCUGCCUUUCUAAUAUCCAGACCAUCAUCAACCGUAUGUUUAAAUGGACCCAUUUCUACCUCUCUUAUAAGCUCCUUUCUAACCAACAGAGGAUUGAGCAUCA
# B13: chr1:244855233:244855234:+_ENSG00000121644_ENST00000302550|hu_mus|hu_hu_hu_mus_True|38_78 (ssRNA)
# RNA: GGGAGUUCUACAGUCCGACGAUCCAUCAGAUGGUAGGCGUUGCCCUUAUACUCUUUUCCCAGUUCUUCUACAAUUUUCUCUAUAUCAUCUUCUAGAAAGUCCGUGCUUCCUAGAACAACAGCUUCUUUAAAUUUAAAUGUUUCCAACAGAGGAUUGAGCAUCA
# B14: chr2:120444880:120444881:+_ENSMUSG00000027285_ENSMUST00000124187|mus_mus|motif|central (ssRNA)
# RNA: GGGAGUUCUACAGUCCGACGAUCUCACUUGGCCCUGGAGGUUUCGGUGUGAGCCUUAGGAAAAAAAGGUAAAGGAGGCACGGUGUCAAGUUCAUGAAGAUGGCGUUCUUCAGUUAGCAUUUUGGGGAUAUACAAGGAAAUUUCCAACAGAGGAUUGAGCAUCA
# B15: 35659168_35659857_317_CDS_ENSG00000100281_ENST00000216106|human|control|control (ssRNA)
# RNA: GGGAGUUCUACAGUCCGACGAUCGUAAUCAUCAGAGGAGUGCUUCCUCUUCUUCUUGUGUGUGUCCGUCCCCAAGAAGUAAAGUUCACUAUCCUUCAACUUCUUCUUGGAAGAAUUCCUGACCUGAGCAGCAAUUUCUUCCUCCAACAGAGGAUUGAGCAUCA
# B16: chr11:94923035:94923036:-_ENSG00000149212_ENST00000536441|hu_hu|motif|central (ssRNA)
# RNA: GGGAGUUCUACAGUCCGACGAUCUCCAGUUUUGACAAGUUUCUGAAUGUGCUCUUUUGUGAUCAGCCAAGGUCGAUGUGCGGGCAGCUUAUUAAUUUCAUUAAGAUUUUUCAGUCUUUGUGGCACAUAUUCCAAACCAUUCAACAACAGAGGAUUGAGCAUCA
# B17: chr16:47694578:47694579:+_ENSG00000102893_ENST00000566044|hu_hu|FALSE|FALSE (ssRNA)
# RNA: GGGAGUUCUACAGUCCGACGAUCUUCAGGAGCACUAGGGGUGCUGCUUUGCCGUUUGACUUUUGAAUGUUUGGGAGGUUCUAGUUCCUCAAAACUCUUAAAUUCUGGAAGCUCUUCUGUGUCACUGAUUCGUAGGAAAUCAAGCAACAGAGGAUUGAGCAUCA
# B18: 100033694_100036846_4142_CDS_ENSMUSG00000023026_ENSMUST00000100203|mouse|control|control (ssRNA)
# RNA: GGGAGUUCUACAGUCCGACGAUCCCGUUCCACAAGACGGACCCUGUCAUGUCUCAGCGACUUCAGAUCCACAUACACAGUUGUUGGAUCCGGCCCUGAGGUUCCCUGUAAACAUAUUGCUACAUUGACUCUGGAUCCAAAAGUCAACAGAGGAUUGAGCAUCA
# B19: 107147277_107148150_654_CDS_ENSG00000125266_ENST00000245323|human|control|control (ssRNA)
# RNA: GGGAGUUCUACAGUCCGACGAUCACCAGCUUCUAGUUCUGGACGUCUUGUUGGAUCUUUAUUCCUGGUUGAUCCAGCAGAACUUGCAUCUUGUCCAACUUUCAUGAGGAUCUUCAUGGCUCUUGUCUGGCACACCCCUCCCUCCAACAGAGGAUUGAGCAUCA
# B20: chr16:17261293:17261294:+_ENSMUSG00000050240_ENSMUST00000090190|mus_mus|motif|central (ssRNA)
# RNA: GGGAGUUCUACAGUCCGACGAUCGACAUGCUCAGUGAGGGGCUCUGCUCCUAGUCCCUGAUUUUCUGCAGAUGAGGGUACCGGCAGCCUGGGAGGCCACACAGACCUUGUGUCCUAGGCCUUAAGUGCUGGUAGGUGGGUGGGCAACAGAGGAUUGAGCAUCA
# B21: 12098148_12098268_475_CDS_ENSMUSG00000028218_ENSMUST00000108285|mouse|control|control (ssRNA)
# RNA: GGGAGUUCUACAGUCCGACGAUCUUGAAGUUUGGCAAACUCAUCAGCAAAGUCUUUCAGACCCUGCUUUAAAUUUGGUGUCUCGGUAGAGGCAUACAGGUUGAUUUCGUUCACUAGGAGGUCGGCUUUGUCUCGAAGCCUGGCCAACAGAGGAUUGAGCAUCA
# B22: chr1:202705475:202705476:-_ENSG00000117139_ENST00000367264|hu_hu|FALSE|FALSE (ssRNA)
# RNA: GGGAGUUCUACAGUCCGACGAUCCAGUCUUGGCAAAGAAUUCAGAUGUACGGGGAUAGAUCGGCCUCGUGUAACAAGUUCUAUGAGUGUGUCUAACACUGGCACACGUCCUCCAGCCUGCAGGCCCUCUACAUCCUGAAGCCACAACAGAGGAUUGAGCAUCA
# Molecular target: T1, UNK ZnF1-3
# Assay: nsRBNS (natural sequence RNA bind-n-seq); RBNS binding buffer (assumed for nsRBNS): 25 mM Tris pH 7.5, 150 mM KCl, 3 mM MgCl2, 0.01% Triton X-100, 500 ug/ml BSA, 20 U/ml SUPERase-In, 4 C; UNK is unkempt and MSI1 is Musashi-1; names of the RNAs are library labels; protein concentration not given here; high values mean tight binding
row,Binder,binding signal
1,B1,0.349 enrichment R
2,B2,0.811 enrichment R
3,B3,0.715 enrichment R
4,B4,0.894 enrichment R
5,B5,0.967 enrichment R
6,B6,0.706 enrichment R
7,B7,0.971 enrichment R
8,B8,0.829 enrichment R
9,B9,1.65 enrichment R
10,B10,2.92 enrichment R
11,B11,1.69 enrichment R
12,B12,1.68 enrichment R
13,B13,1.23 enrichment R
14,B14,1.62 enrichment R
15,B15,0.629 enrichment R
16,B16,1.04 enrichment R
17,B17,0.862 enrichment R
18,B18,0.817 enrichment R
19,B19,0.434 enrichment R
20,B20,0.68 enrichment R
21,B21,0.754 enrichment R
22,B22,0.819 enrichment R
